Our source for the enrichment ratio values is a collection of fitness landscapes (doi:10.1126/science.1257360).

This is one part of the list. Some results are limits rather than exact numbers.

The labels stand for the following.
B1: PhoQ; a variant is named by its letters at X, in order, P23837 (parent)
chain: MKKLLRLFFPLSLRVRFLLATAAVVLVLSLAYGMVALIGYSVSFDKTTFRLLRGESNLFYTLAKWENNKLHVELPENIDKQSPTMTLIYDENGQLLWAQRDVPWLMKMIQPDWLKSNGFHEIEADVNDTSLLLSGDHSIQQQLQEVREDDDDAEMTHSVAVNVYPATSRMPKLTIVVVDTIPVELKSSYMVWSWFIYVLSANLLLVIPLLWVAAWWSLRPIEALAKEVRELEEHNRELLNPATTRELTSLVRNLNRLLKSERERYDKYRTTLTDLTHSLKTPLXXLQXXLRSLRSEKMSVSDAEPVMLEQISRISQQIGYYLHRASMRGGTLLSRELHPVAPLLDNLTSALNKVYQRKGVNISLDISPEISFVGEQNDFVEVMGNVLDNACKYCLEFVEISARQTDEHLYIVVEDDGPGIPLSKREVIFDRGQRVDTLRPGQGVGLAVAREITEQYEGKIVAGESMLGGARMEVIFGRQHSAPKDE

The variants in this assay derive from B1. Nature of the assay: enrichment ratio after two sorts for PhoP signalling (ratio (wild type AVST 3.29)); higher = more functional. The following applies: with PhoP (E. coli).
On to WLTH, for which the enrichment ratio is at most 0.25. As for NRVT, the figure is at most 0.25; as for MPYP, at most 0.25; as for STIN, 7.01. In the case of PIID, the enrichment ratio was at most 0.25. The result for TNHA reads at most 0.25; that for LPIR, at most 0.25; that for APYF, at most 0.25. Turning to SVFA, the enrichment ratio was at most 0.25.

On to PGDM, for which the enrichment ratio is at most 0.25. As for GMMQ, the figure is at most 0.25; as for MLYV, at most 0.25; as for GLNE, at most 0.25.

In the case of ATGR, the enrichment ratio is at most 0.25. As for NCDD, the figure is at most 0.25; as for SGNP, at most 0.25. As for QHSQ, the figure is at most 0.25; as for KHDL, at most 0.25; as for LDNY, at most 0.25. As for WTFT, the figure is at most 0.25. With FHTI, the enrichment ratio is at most 0.25. For VWSC, the enrichment ratio is at most 0.25. Consider QNWN, for which the enrichment ratio was found to be 4.18. The result for SEEK reads at most 0.25; that for GGNS, at most 0.25. Take IRPA: the enrichment ratio was at most 0.25.

For TYDC, the enrichment ratio was at most 0.25. The result for IYNT reads at most 0.25; that for SLQF, 1.06. Take YADL: the enrichment ratio is at most 0.25. As to KQRC, the enrichment ratio was at most 0.25. On to SNWI, for which the enrichment ratio is at most 0.25. As for YMFN, the figure is at most 0.25; as for RDSS, at most 0.25. The result for STVA reads 4.52; that for FDYR, at most 0.25; that for GRKS, at most 0.25. As for IWCY, the figure is at most 0.25; as for KRMA, at most 0.25.

Turning to NSDW, the enrichment ratio is at most 0.25. Turning to PNTF, the enrichment ratio was at most 0.25. As for DVCP, the figure is 1.78. As for FEMQ, the figure is 9.2. For the variant NINL, the enrichment ratio is at most 0.25. With STYL, the enrichment ratio stood at 0.375. The result for LHQL reads at most 0.25; that for MLYR, at most 0.25; that for YSLW, at most 0.25. As to HWWT, the enrichment ratio is at most 0.25.

Consider NTYP, for which the enrichment ratio is at most 0.25. The result for MNNM reads at most 0.25. As for QPMW, the figure is at most 0.25; as for ERFS, at most 0.25; as for NASH, at most 0.25. The result for CHCS reads at most 0.25. KVNL: the enrichment ratio was at most 0.25.

Consider EAHN, for which the enrichment ratio is at most 0.25.

Turning to PCCM, the enrichment ratio was at most 0.25.

With HEII, the enrichment ratio is at most 0.25. As for TPGE, the figure is at most 0.25; as for PITF, at most 0.25. The result for VHCP reads at most 0.25; that for VHDD, at most 0.25. For MWDT, the enrichment ratio was at most 0.25. As for RHWN, the figure is at most 0.25; as for WEWL, at most 0.25; as for DYMY, at most 0.25.

Turning to NRSQ, the enrichment ratio was at most 0.25. The result for IRQL reads at most 0.25. On to LHPI, for which the enrichment ratio is at most 0.25. As for AISC, the figure is 9.79; as for GASY, at most 0.25. As for VCMC, the figure is 1.73; as for HGKV, at most 0.25.

With GDAD, the enrichment ratio was at most 0.25. As for IHGE, the figure is at most 0.25; as for IAAN, at most 0.25.

Regarding HYME, the enrichment ratio is at most 0.25. In the case of HWIT, the enrichment ratio was at most 0.25. On to GYFG, for which the enrichment ratio is at most 0.25. On to LCDP, for which the enrichment ratio was at most 0.25. As for SPFQ, the figure is at most 0.25. With DKAT, the enrichment ratio was at most 0.25.

Consider LKGW, for which the enrichment ratio is at most 0.25.

On to ASQH, for which the enrichment ratio is at most 0.25. The result for KFGR reads at most 0.25; that for PATY, at most 0.25. As for VNAT, the figure is 1.79; as for ADYE, at most 0.25; as for KNIS, at most 0.25. As for PFVG, the figure is at most 0.25; as for SDAL, at most 0.25; as for RDTS, at most 0.25. As for GNQT, the enrichment ratio was at most 0.25.

With HATN, the enrichment ratio is at most 0.25. As for WIPS, the figure is at most 0.25; as for HWSW, at most 0.25; as for FVRV, at most 0.25.

Regarding NWAD, the enrichment ratio was at most 0.25.

SPYA: the enrichment ratio is at most 0.25. The result for LWFD reads at most 0.25; that for DGNH, at most 0.25. Consider VNDL, for which the enrichment ratio was at most 0.25. YRQV: the enrichment ratio is at most 0.25. As for SWIT, the figure is at most 0.25. As for ALYP, the enrichment ratio was 0.743. In the case of RHCH, the enrichment ratio is at most 0.25. As for GDEH, the figure is at most 0.25. As to EGDL, the enrichment ratio was at most 0.25.

In the case of RNNL, the enrichment ratio was at most 0.25. As to SGIL, the enrichment ratio amounted to 4.9. For NSHS, the enrichment ratio is at most 0.25.

On to IDKT, for which the enrichment ratio was at most 0.25. The result for DNAG reads at most 0.25; that for VIKN, at most 0.25; that for MGNN, at most 0.25. Consider NWEL, for which the enrichment ratio was at most 0.25. LTTT: the enrichment ratio was at most 0.25. Turning to KCYY, the enrichment ratio was at most 0.25. With IKGV, the enrichment ratio is at most 0.25. Turning to NMDS, the enrichment ratio is at most 0.25. The result for NPVN reads at most 0.25; that for VNWE, at most 0.25; that for LTQA, at most 0.25. For HEQM, the enrichment ratio was 8.33. Consider MKLT, for which the enrichment ratio is at most 0.25. The result for TMLH reads at most 0.25. For the variant SHIP, the enrichment ratio was at most 0.25. As for GVKP, the figure is at most 0.25. The result for IFIK reads at most 0.25.

Regarding MQLH, the enrichment ratio came out at 0.839. The result for YPSE reads at most 0.25; that for TNVD, at most 0.25; that for NATS, at most 0.25.

Consider AKYH, for which the enrichment ratio was at most 0.25. As for FPQA, the figure is at most 0.25; as for QQLS, 3.17; as for NSEY, at most 0.25. As for GEFT, the figure is at most 0.25; as for TLTM, 19. As for NWPP, the figure is at most 0.25; as for GYWW, at most 0.25; as for ERVT, at most 0.25.

As to VYWN, the enrichment ratio was at most 0.25. Take NNWD: the enrichment ratio is at most 0.25. NLFD: the enrichment ratio is at most 0.25. For FQVR, the enrichment ratio is at most 0.25. Consider WTNR, for which the enrichment ratio is at most 0.25. The result for YCHE reads at most 0.25; that for EFHP, at most 0.25; that for AWSY, at most 0.25. Consider WPQE, for which the enrichment ratio is at most 0.25. The result for QYWF reads at most 0.25.
